Results published in PMC7819943, “Rice protein-binding microarrays: a tool to detect cis-acting elements near promoter regions in rice”.
This is one part of the list.

Molecular target: T1, OsWOX13 (Oryza sativa, UniProt Q5QMM3 1-267)
T1 sequence: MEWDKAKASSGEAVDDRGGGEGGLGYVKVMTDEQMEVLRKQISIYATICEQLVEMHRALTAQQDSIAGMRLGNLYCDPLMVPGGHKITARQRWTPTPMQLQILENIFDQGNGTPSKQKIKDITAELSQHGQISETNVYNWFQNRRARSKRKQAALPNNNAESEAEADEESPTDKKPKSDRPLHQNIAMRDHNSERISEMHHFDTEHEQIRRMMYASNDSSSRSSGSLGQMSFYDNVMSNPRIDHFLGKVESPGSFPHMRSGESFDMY
Test: protein-binding microarray (RPBM); PBS, 2% BSA, 51.3 ng/ul salmon testes DNA, 50 uM zinc acetate, 200 nM TF, 25 C, 1 h; high values mean tight binding
Conditions: protein: recombinant; tags: N-terminal polyhistidine and DsRed monomer fusion (pET32a); label: CyDye5-dUTP incorporated in the synthesized complementary strand; 3' TTTTT single-stranded linker to array surface; dsDNA, one strand shown
Summary of the method: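 The binding signal is fluorescence intensity per array feature (arbitrary units). Readings came from an Axon 4000B scanner after a washed, 2% BSA-blocked, double-stranded custom Agilent array had been incubated for 1 h at 25 °C with 200 nM protein and 50 µM zinc acetate. The protein was a Ni–NTA-purified transcription factor fused N-terminally to polyhistidine and DsRed, expressed in E. coli BL21-CodonPlus.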

Q: For “CTTATATATAAACTAACTGGAACATTTCCAATGAAACAGTCGGAGTCACCTAGTGCAG”, which binding signal is on record?
A: Its binding signal is 3810 fluorescence intensity (a.u.).

Q: With “TAAAATGAGCATTAATCAATCGGTGATAGGTCTGGATGTACGGAGTCACCTAGTGCAG” as the sequence, how does the binding signal read?
A: The binding signal was 15400 fluorescence intensity (a.u.).

Q: With “CCGAATTTCTATTATTTCTTAATTGTATTTCTATATGGACCGGAGTCACCTAGTGCAG” as the sequence, how does the binding signal read?
A: Its binding signal is 7410 fluorescence intensity (a.u.).

Q: For “CTAATGTTTATAAACCTAAAGTTTATAGACCCAAAGTTTACGGAGTCACCTAGTGCAG”, which binding signal is on record?
A: Its binding signal is 9880 fluorescence intensity (a.u.).

Q: “ACACTGATACTGTAACATCAATTATAGGATGAGTGAAAACCGGAGTCACCTAGTGCAG” was tested. Which binding signal did it give?
A: The binding signal was 3300 fluorescence intensity (a.u.).

Q: How did the binding signal turn out when “GGTTACCAACTAATTTGATATATAAATGAGTTTTGGGGTTCGGAGTCACCTAGTGCAG” was run?
A: The binding signal was 13200 fluorescence intensity (a.u.).

Q: For “CACGATAATTTTCGTCGCACAAATCGTCGCCTCGTACGTGCGGAGTCACCTAGTGCAG”, which binding signal is on record?
A: The binding signal was 9530 fluorescence intensity (a.u.).

Q: For “TTAATTAGATGCTCATATAAATATGGTGAAACCTGCATGCCGGAGTCACCTAGTGCAG”, which binding signal is on record?
A: Its binding signal is 21500 fluorescence intensity (a.u.).

Q: With “CGAAATATTTCAATAAATTAGTACCAAATTCTTATTGCAACGGAGTCACCTAGTGCAG” as the sequence, how does the binding signal read?
A: Its binding signal is 3310 fluorescence intensity (a.u.).

Q: “CGGATTACTTATCGAAATTTTGATGATTTCGATCGGAATTCGGAGTCACCTAGTGCAG” was tested. Which binding signal did it give?
A: Its binding signal is 4860 fluorescence intensity (a.u.).

Q: “CTAATTAACCACTTCCCAACCTTGGTAGGAAAACCTACGCCGGAGTCACCTAGTGCAG” was tested. Which binding signal did it give?
A: The binding signal was 4900 fluorescence intensity (a.u.).

Q: For “CAACTAACAATCAACTGACGGGAGGGGTATGGAAGGGATCCGGAGTCACCTAGTGCAG”, which binding signal is on record?
A: Its binding signal is 10400 fluorescence intensity (a.u.).

Q: How did the binding signal turn out when “TTTAATTATTCTGGGATGGAGGGAGTACATCGAAATCTTACGGAGTCACCTAGTGCAG” was run?
A: The binding signal was 8800 fluorescence intensity (a.u.).

Q: “TAAAATTATGTAACTCTAAATTTATCATCACCCCAAGCATCGGAGTCACCTAGTGCAG” was tested. Which binding signal did it give?
A: Its binding signal is 16500 fluorescence intensity (a.u.).

Q: How did the binding signal turn out when “ATGTAATTTTATATCCAATAAAATTAAATTTGATATTTTACGGAGTCACCTAGTGCAG” was run?
A: Its binding signal is 10200 fluorescence intensity (a.u.).

Q: With “AGGCTGCAGTGGATTGATGGATGGATGGGGATTCATTTGTCGGAGTCACCTAGTGCAG” as the sequence, how does the binding signal read?
A: The binding signal was 5060 fluorescence intensity (a.u.).

Q: For “ATTAATTTTCTCGCTGGTAATTAACTTGCATGTGCACGTCCGGAGTCACCTAGTGCAG”, which binding signal is on record?
A: Its binding signal is 11800 fluorescence intensity (a.u.).

Q: For “CGACGATGTAAATTTATACTTTCGTTCTTCTGAAGTTGGCCGGAGTCACCTAGTGCAG”, which binding signal is on record?
A: Its binding signal is 3850 fluorescence intensity (a.u.).

Q: “AATTACCAAACTGAATAATGAATGAACGAACCATTACAGGCGGAGTCACCTAGTGCAG” was tested. Which binding signal did it give?
A: The binding signal was 3300 fluorescence intensity (a.u.).

Q: Which binding signal does the source give for “GCAAATTTGGATTGTGCCTCACTTTAGTGAGTTGATGACACGGAGTCACCTAGTGCAG” here?
A: The binding signal was 5730 fluorescence intensity (a.u.).

Q: “GTCCAAAATTAGTTTTACTAATCTATGTTGTTGGACTTAACGGAGTCACCTAGTGCAG” was tested. Which binding signal did it give?
A: Its binding signal is 5520 fluorescence intensity (a.u.).

Q: Which binding signal does the source give for “ATAATGGAATTAAATCCAGCCTATTGTGAGACACGTGTAGCGGAGTCACCTAGTGCAG” here?
A: The binding signal was 4690 fluorescence intensity (a.u.).

Q: How did the binding signal turn out when “GCTACATGCTAATTGTGTATATCTAACATGCGCTGACGGCCGGAGTCACCTAGTGCAG” was run?
A: The binding signal was 3710 fluorescence intensity (a.u.).

Q: With “TAGCTGGTTGACAGATTCATCAGTGATGTGGATCAACATGCGGAGTCACCTAGTGCAG” as the sequence, how does the binding signal read?
A: Its binding signal is 3670 fluorescence intensity (a.u.).

Q: Which binding signal does the source give for “GGTGAATAATTATAGAACCGAAGGTTGCATGACCTCAACTCGGAGTCACCTAGTGCAG” here?
A: The binding signal was 4430 fluorescence intensity (a.u.).

Q: With “ACCTTCAAACAGCAACAAATTGACCCGCACCACTGGGACACGGAGTCACCTAGTGCAG” as the sequence, how does the binding signal read?
A: Its binding signal is 4920 fluorescence intensity (a.u.).

Q: How did the binding signal turn out when “GATCGAAATAGACTGAACTCGCCTCAGGTTCGTTCCACCACGGAGTCACCTAGTGCAG” was run?
A: The binding signal was 4680 fluorescence intensity (a.u.).

Q: For “ATAATGGCATAATTTAAATTTTACAAAATACTTATGACACCGGAGTCACCTAGTGCAG”, which binding signal is on record?
A: The binding signal was 12600 fluorescence intensity (a.u.).

Q: “AAGGTTGAAAAGTTGATTGAAGAGCATTAAACTTAAACCTCGGAGTCACCTAGTGCAG” was tested. Which binding signal did it give?
A: The binding signal was 29200 fluorescence intensity (a.u.).

Q: “AAAATCATTAGTGTTAACAAAGTTTAGATGTTGGAAGCATCGGAGTCACCTAGTGCAG” was tested. Which binding signal did it give?
A: The binding signal was 5690 fluorescence intensity (a.u.).

Q: “ACTTAATTAACTATACGTTACTAGTTTCTCGTTTTACATGCGGAGTCACCTAGTGCAG” was tested. Which binding signal did it give?
A: Its binding signal is 48000 fluorescence intensity (a.u.).

Q: For “AACGCAATCAGTGGGAGATCAATCGCAAAATCACCATCATCGGAGTCACCTAGTGCAG”, which binding signal is on record?
A: The binding signal was 11000 fluorescence intensity (a.u.).

Q: “ATACATAACTCACCAATTATAGAACCAACAATTACATAACCGGAGTCACCTAGTGCAG” was tested. Which binding signal did it give?
A: The binding signal was 4630 fluorescence intensity (a.u.).

Q: “TATTAAATATAGATTAATTACAAAACCTATTCCATAATCTCGGAGTCACCTAGTGCAG” was tested. Which binding signal did it give?
A: Its binding signal is 9640 fluorescence intensity (a.u.).

Q: Which binding signal does the source give for “ACCCACCATCAATCAGCTCTCACACAAGCCCAATACGGCACGGAGTCACCTAGTGCAG” here?
A: The binding signal was 11600 fluorescence intensity (a.u.).

Q: Which binding signal does the source give for “TGTAACAGATAAACTGATGAAGGAACTTGTGATAGAAACTCGGAGTCACCTAGTGCAG” here?
A: Its binding signal is 8670 fluorescence intensity (a.u.).

Q: With “ATTAGATAATTATCGTTAAACTGTTATCCCTTCTTCCTATCGGAGTCACCTAGTGCAG” as the sequence, how does the binding signal read?
A: Its binding signal is 50300 fluorescence intensity (a.u.).

Q: “CGCTCGATTATGTGGGATTAGGTAGATGAGGGCGGCGCTGCGGAGTCACCTAGTGCAG” was tested. Which binding signal did it give?
A: The binding signal was 3420 fluorescence intensity (a.u.).

Q: “CATGATTTACCACATTTCAGTTTTAGCACAGGACACATTTCGGAGTCACCTAGTGCAG” was tested. Which binding signal did it give?
A: Its binding signal is 17800 fluorescence intensity (a.u.).

Q: Which binding signal does the source give for “GAAGCTTTGACAGATTGCCCTGACCTTTTGGTGTGTAACACGGAGTCACCTAGTGCAG” here?
A: The binding signal was 10700 fluorescence intensity (a.u.).

Q: “TGTATTTAATTAGTTTGACAGAAACAAATTTGCTCAGTTACGGAGTCACCTAGTGCAG” was tested. Which binding signal did it give?
A: The binding signal was 37100 fluorescence intensity (a.u.).

Q: For “CTTAATCAAACTGAACTTTTGCCAACTTCCATTTTACAACCGGAGTCACCTAGTGCAG”, which binding signal is on record?
A: Its binding signal is 4290 fluorescence intensity (a.u.).
